Among all 310,000 compounds or so, about 18,000 (5.8%) were called active. The inconclusive results got no clear call from the source; some entries with a clear call stand among them for comparison. The call rests on the fitted dose curve; in most records, active means well fitted inhibition curve with a large enough effect; inconclusive means small, poorly fitted or top-dose-only effect, or another doubt; inactive means no such curve, though single readings can be large or run the other way. No potency is given beside an inconclusive call; the fits are too rough.
Test: Primary qHTS for delayed death inhibitors of the malarial parasite plastid, 48 hour incubation
Conditions: P. falciparum luciferase growth in erythrocytes; series mostly up to 28.7 µM; activity change, negative = inhibition: at the top concentration
Method in brief: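 Parasite viability was followed by luminescence of a genomically integrated firefly luciferase. Cultures held 0.1% parasitemia at 2% hematocrit (final), incubated under 5% CO2 at 37 C.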
On the % scale 0 is the no-effect control and ±100 the full control effect; potency means the concentration at half of the fitted maximal effect; tags describe the fitted curve by direction and shape.

SMILES	activity change, negative = inhibition	Potency
O=C(O)c1cc(NN=Nc2cccc([N+](=O)[O-])c2)cc([N+](=O)[O-])c1	inactive: 2.27%	
CCCCn1c(N)c(N(CCC(C)C)C(=O)C2CC(=O)N(c3ccccc3OCC)C2)c(=O)[nH]c1=O (configuration not stated)		inconclusive [inhibitor, partial curve, poor fit]
O=C(O)c1ccc(S(=O)(=O)c2ccc([N+](=O)[O-])cc2[N+](=O)[O-])cc1		inconclusive [inhibitor, single point]
CC1CCCCN1CCNC(=O)c1ccc2c(c1)N(Cc1ccccc1)C(=O)c1ccccc1S2(=O)=O (configuration not stated)		active: 5.22 µM
COC(=O)C1=C(C)N(Cc2ccc(OC)c(OC)c2)C(=O)C1		active: 13.1 µM
CSc1ccc(CN(C)Cc2nc3cc(C(F)(F)F)ccc3c(=O)[nH]2)cc1	inactive: -10.9%	
c1ccc(C(c2ccccn2)c2ccccn2)cc1		inconclusive [inhibitor, single point]
COc1ccc(-c2csc3nc[nH]c(=O)c23)cc1OC	inactive: -19.3%	
CCn1c(SCCC(=O)Nc2ccccc2)nnc1-c1ccc(OC)cc1	inactive: -14.6%	
O=C(Nc1ccc2c(c1)OCCO2)C1CCN(c2cnccn2)CC1	inactive: -9.46%	
O=C(N/N=C/c1ccc[nH]1)c1sc2ccccc2c1Cl		inconclusive [inhibitor, full curve]
COc1cc(Cl)ccc1NC(=S)N(CCCN1CCOCC1)Cc1cn(C)c2ccccc12		inconclusive [inhibitor, single point]
O=C(N/N=C(\c1ccccc1)c1cccnc1)c1ccc(O)cc1	inactive: 0%	
O=C(CNC(=O)c1ccc(F)cc1)c1ccc(Cl)cc1		inconclusive [inhibitor, single point]
CCc1ccc(-c2nn(Cc3ccccc3)cc2C=O)cc1	inactive: 156%	
CC(C)(C)NC(=O)NC(=O)C[n+]1ccc(Cc2ccc([N+](=O)[O-])cc2)cc1		active: 9.28 µM
COc1ccc(S(=O)(=O)N2CCCCCC2)cc1C(=O)NCCc1ccccc1		inconclusive [inhibitor, partial curve, poor fit]
O=C(Nc1ccc(Cl)cc1)C(Cl)C(=O)c1ccccc1 (configuration not stated)	inactive: 21.9%	
C=CCn1c(C)cc(C(=O)COC(=O)CNC(=O)c2ccccc2)c1C	inactive: 190%	
COC(=O)CN(n1cnnc1)S(=O)(=O)c1ccc(C)cc1	inactive: 11.8%	
O=c1c2cc(NC(=S)NC3CCCCC3)ccc2nc2n1CCCCC2		inconclusive [inhibitor, partial curve, poor fit]
CCOC(=O)N1CCN(C(=O)CSc2nc(=O)n3ccccc3n2)CC1	inactive: 4.25%	
O=C(N=Nc1c(O)n(Cc2ccccc2)c2ccccc12)c1ccc(O)cc1		inconclusive [inhibitor, single point]
COc1cccc(Nc2nnc(SCC(=O)Nc3sccc3C(N)=O)s2)c1		inconclusive [inhibitor, partial curve]

SMILES	activity change, negative = inhibition	Potency
O=C(CSc1nnc(-c2ccccc2)n1Cc1ccco1)Nc1ccc2c(c1)OCCO2		inconclusive [inhibitor, partial curve]
O=C(c1cccs1)N(Cc1ccccn1)Cc1ccco1	inactive: 19.6%	
COc1cccc(-n2nnc3c(=O)n(CC(=O)Nc4cc(C)on4)cnc32)c1	inactive: 35.6% [at 1.15 µM]	
CCCCCCn1c(=O)c(C(=O)Nc2nc(CC(=O)OCC)cs2)c(O)c2ccccc21		active: 11.7 µM
Fc1cccc(CN(C2=NCCN2)c2c(Cl)cccc2Cl)c1		active: 11.7 µM
Cc1sc2nc(-c3ccccn3)[nH]c(=O)c2c1-c1ccccc1		active: 1.47 µM
CN(C)c1ccc(-c2nnn(Cc3ccccc3Br)n2)cc1		inconclusive [inhibitor, single point]
CC(=O)Nc1cccc(OCC(=O)Nc2ccc(F)cc2)c1	inactive: 38.9%	
Cc1nc2ccccc2c(=O)n1-c1cccc(NC(=O)c2cccs2)c1		inconclusive [inhibitor, single point]
CCc1ccc(NC(=O)CN(c2ccc(OC)cc2)S(=O)(=O)c2c(C)nn(C)c2C)cc1		inconclusive [inhibitor, partial curve, poor fit]
COc1cccc(Cl)c1NC(=O)N1CCc2c([nH]c3ccccc23)C1C(F)(F)F (configuration not stated)		inconclusive [inhibitor, single point]
CCOC(=O)C1CCCN(C(=O)CNC(=O)c2nn(-c3ccc(OC)c(Cl)c3)c(=O)c3ccccc23)C1 (configuration not stated)		inconclusive [inhibitor, partial curve, poor fit]
COc1ccc(/C=C/C(=O)NCCSCc2ccco2)cc1OC	inactive: -3.93%	
O=C(Nc1ccc(Oc2nnc(-c3ccccc3)c3ccccc23)cc1)c1ccccc1		active: 10.4 µM
COc1ccc(C(=O)COC(=O)CCc2nc3ccccc3[nH]c2=O)cc1Br	inactive: -6.88%	
COc1ccc(Cl)cc1NC(=O)CSc1nc(NS(=O)(=O)c2ccccc2)cc(=O)[nH]1	inactive: 0%	
Cc1ccc(S(=O)(=O)NCc2ccccc2)cc1C(=O)N1CCCC(C(F)(F)F)C1 (configuration not stated)		inconclusive [inhibitor, single point]
Cc1ccc(NC(=O)CNC(=O)CC23CC4CC(CC(C4)C2)C3)c(O)c1		inconclusive [inhibitor, partial curve, poor fit]
COc1ccccc1N1CCN(C(=O)c2cc3c(C)nc4ccccc4c3o2)CC1		inconclusive [inhibitor, partial curve]
O=c1[nH]cc(C(F)(F)F)cc1NS(=O)(=O)c1ccc([N+](=O)[O-])cc1	inactive: -25.6%	
CCOC(=O)c1c(NC(=O)C(F)(OC)C(F)(F)F)sc2c1CCN(C)C2 (configuration not stated)		inconclusive [inhibitor, partial curve, poor fit]
CC1(C)CC(NC(=O)C23CCC(C)(C(=O)C2)C3(C)C)CC(C)(C)N1 (configuration not stated)		inconclusive [inhibitor, partial curve, poor fit]
FC(F)(F)c1nnc2c(Sc3ccccn3)nc3ccccc3n12		active: 9.28 µM

From PubChem BioAssay AID504832 (National Center for Advancing Translational Sciences (NCATS), 2011)
